Results published in the supplement of paper PMC10369915.
This is one part of the list. Rule as the data show it: active = 3.2 or more and inactive = the rest. The signal is at background level for most entries.

Experiments:
Experiment in all cases: enrichment score (SH2-bound / input frequency) (ratio); bacterial display of known human phosphotyrosine sites (pTyr-Var adds point mutants) read by sequencing; higher = stronger binding; tyrosines were phosphorylated by kinases first
Conditions in all cases: peptide library: Human pTyr
SHP2 C-SH2 domain E139D = molecular target: SHP2 C-SH2 domain E139D
[1] = molecular target: SHP2 C-SH2 domain wild-type
SHP2 N-SH2 domain L43F = molecular target: SHP2 N-SH2 domain L43F
SHP2 N-SH2 domain T42A = molecular target: SHP2 N-SH2 domain T42A
SHP2 N-SH2 domain T52S = molecular target: SHP2 N-SH2 domain T52S
[2] = molecular target: SHP2 N-SH2 domain wild-type

Measured: enrichment score
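Also: displayed peptides selected on beads carrying the immobilized SH2 domain, with library peptides lacking any tyrosine serving as negative controls.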

GMGKAENYELYSVEL [ATP4A_HUMAN_7]
inactive: SHP2 C-SH2 domain E139D 0.685 | [1] 0.512 | SHP2 N-SH2 domain L43F 0.58 | SHP2 N-SH2 domain T42A 0.628 | SHP2 N-SH2 domain T52S 0.636 | [2] 0.566

SALLGDHYVQLPATA [RON_HUMAN_1353_YA]
inactive: SHP2 C-SH2 domain E139D 0.561 | [1] 0.515 | SHP2 N-SH2 domain L43F 0.581 | SHP2 N-SH2 domain T42A 0.505 | SHP2 N-SH2 domain T52S 0.705 | [2] 0.642

FGLARDIYKNDYYRK [ROS1_HUMAN_2110]
inactive: SHP2 C-SH2 domain E139D 1.27 | [1] 1.48 | SHP2 N-SH2 domain L43F 0.98 | SHP2 N-SH2 domain T42A 2.04 | SHP2 N-SH2 domain T52S 1.92 | [2] 1.32

GSPYGGGYGSGGGSG [ROA3_HUMAN_364]
inactive: SHP2 C-SH2 domain E139D 0.633 | [1] 0.462 | SHP2 N-SH2 domain L43F 0.411 | SHP2 N-SH2 domain T42A 0.49 | SHP2 N-SH2 domain T52S 0.545 | [2] 0.48

VLGDIIFYDLKDPFD [S3TC1_HUMAN_1248]
inactive: SHP2 C-SH2 domain E139D 1.14 | [1] 1.19 | SHP2 N-SH2 domain L43F 1.4 | SHP2 N-SH2 domain T42A 0.767 | SHP2 N-SH2 domain T52S 1.02 | [2] 1.06

FLVTLLIYRMKKKDE [SDC3_HUMAN_409]
inactive: SHP2 C-SH2 domain E139D 0.217 | [1] 0.156 | SHP2 N-SH2 domain L43F 0.582 | SHP2 N-SH2 domain T42A 0.574 | SHP2 N-SH2 domain T52S 0.585 | [2] 0.443

AVQLPATYMNLGPST [RON_HUMAN_1360_YA]
inactive: SHP2 C-SH2 domain E139D 1 | [1] 0.753 | SHP2 N-SH2 domain L43F 1.21 | SHP2 N-SH2 domain T42A 0.849 | SHP2 N-SH2 domain T52S 1.51 | [2] 0.907

KVERADGYEPPVQES [RS3A_HUMAN_256]
inactive: SHP2 C-SH2 domain E139D 1.01 | [1] 0.915 | SHP2 N-SH2 domain L43F 0.832 | SHP2 N-SH2 domain T42A 1.08 | SHP2 N-SH2 domain T52S 0.985 | [2] 1.01

SKMQQNGYENPTAKF [A4_HUMAN_757_YA]
inactive: SHP2 C-SH2 domain E139D 0.864 | [1] 0.796 | SHP2 N-SH2 domain L43F 0.894 | SHP2 N-SH2 domain T42A 0.972 | SHP2 N-SH2 domain T52S 0.993 | [2] 1

GSPAGGGYGSGGGSG [ROA3_HUMAN_364_YA]
inactive: SHP2 C-SH2 domain E139D 0.525 | [1] 0.387 | SHP2 N-SH2 domain L43F 0.522 | SHP2 N-SH2 domain T42A 0.384 | SHP2 N-SH2 domain T52S 0.467 | [2] 0.503

GSGGSGGYGGRSRYG [ROA2_HUMAN_347]
inactive: SHP2 C-SH2 domain E139D 0.751 | [1] 0.699 | SHP2 N-SH2 domain L43F 0.63 | SHP2 N-SH2 domain T42A 0.583 | SHP2 N-SH2 domain T52S 0.631 | [2] 0.722

DDVKEQIYKLAKKGL [RS13_HUMAN_38]
inactive: SHP2 C-SH2 domain E139D 0.912 | [1] 1 | SHP2 N-SH2 domain L43F 0.862 | SHP2 N-SH2 domain T42A 0.927 | SHP2 N-SH2 domain T52S 1.05 | [2] 0.935

DIYKNDYYRKRGEGL [ROS1_HUMAN_2115]
inactive: SHP2 C-SH2 domain E139D 1.01 | [1] 0.765 | SHP2 N-SH2 domain L43F 0.823 | SHP2 N-SH2 domain T42A 0.924 | SHP2 N-SH2 domain T52S 0.899 | [2] 0.984

IITLKDVYDDGKAVA [RPS6KA3_HUMAN_483_YA]
inactive: SHP2 C-SH2 domain E139D 0.795 | [1] 0.692 | SHP2 N-SH2 domain L43F 0.886 | SHP2 N-SH2 domain T42A 0.757 | SHP2 N-SH2 domain T52S 0.956 | [2] 0.771

ATPTSPKYSPTSPTA [RPB1_HUMAN_1909_YA]
inactive: SHP2 C-SH2 domain E139D 0.737 | [1] 0.841 | SHP2 N-SH2 domain L43F 0.616 | SHP2 N-SH2 domain T42A 0.871 | SHP2 N-SH2 domain T52S 1.23 | [2] 0.575

GLEPVGHYEEVELTE [RPS6KB2_HUMAN_45]
inactive: SHP2 C-SH2 domain E139D 1.08 | [1] 0.888 | SHP2 N-SH2 domain L43F 0.885 | SHP2 N-SH2 domain T42A 1.14 | SHP2 N-SH2 domain T52S 0.988 | [2] 1.02

EIYSADYYRVQSKSL [ROR1_HUMAN_646]
inactive: SHP2 C-SH2 domain E139D 0.927 | [1] 0.728 | SHP2 N-SH2 domain L43F 0.695 | SHP2 N-SH2 domain T42A 0.521 | SHP2 N-SH2 domain T52S 0.715 | [2] 0.691

GRSSGSPYGGGAGSG [ROA3_HUMAN_360_YA]
inactive: SHP2 C-SH2 domain E139D 0.563 | [1] 0.482 | SHP2 N-SH2 domain L43F 0.56 | SHP2 N-SH2 domain T42A 0.488 | SHP2 N-SH2 domain T52S 0.445 | [2] 0.524

VEPKTETYVEANMGL [RXRA_HUMAN_249]
inactive: SHP2 C-SH2 domain E139D 0.717 | [1] 0.647 | SHP2 N-SH2 domain L43F 0.636 | SHP2 N-SH2 domain T42A 0.641 | SHP2 N-SH2 domain T52S 0.678 | [2] 0.974

MELALGQYHRNGCIS [SC6A4_HUMAN_142]
inactive: SHP2 C-SH2 domain E139D 1.34 | [1] 1.2 | SHP2 N-SH2 domain L43F 1.23 | SHP2 N-SH2 domain T42A 2.21 | SHP2 N-SH2 domain T52S 1.38 | [2] 1.3

AFVALGAYDRFLPAI [S22A5_HUMAN_486_YA]
inactive: SHP2 C-SH2 domain E139D 1.32 | [1] 1.13 | SHP2 N-SH2 domain L43F 1.03 | SHP2 N-SH2 domain T42A 1.16 | SHP2 N-SH2 domain T52S 1.01 | [2] 1.29

EIEILLRYGQHPNII [RPS6KA3_HUMAN_470]
inactive: SHP2 C-SH2 domain E139D 1.79 | [1] 1.26 | SHP2 N-SH2 domain L43F 1.41 | SHP2 N-SH2 domain T42A 1.53 | SHP2 N-SH2 domain T52S 1.36 | [2] 1.46

MLRIVEPYIAWGAPN [RL7_HUMAN_139_YA]
inactive: SHP2 C-SH2 domain E139D 1 | [1] 0.885 | SHP2 N-SH2 domain L43F 0.924 | SHP2 N-SH2 domain T42A 0.914 | SHP2 N-SH2 domain T52S 0.866 | [2] 1.01

KSKFDNLYGCRESLI [SAHH_HUMAN_193]
inactive: SHP2 C-SH2 domain E139D 1.65 | [1] 1.3 | SHP2 N-SH2 domain L43F 1.09 | SHP2 N-SH2 domain T42A 1.36 | SHP2 N-SH2 domain T52S 1.25 | [2] 1.2

YFVYLGAYDRFLPYI [S22A5_HUMAN_486]
inactive: SHP2 C-SH2 domain E139D 1.89 | [1] 2.06 | SHP2 N-SH2 domain L43F 1.83 | SHP2 N-SH2 domain T42A 1.9 | SHP2 N-SH2 domain T52S 1.9 | [2] 2.4

DVYDDGKYVYVVTEL [RPS6KA3_HUMAN_488]
inactive: SHP2 C-SH2 domain E139D 1.43 | [1] 1.3 | SHP2 N-SH2 domain L43F 1.07 | SHP2 N-SH2 domain T42A 1.18 | SHP2 N-SH2 domain T52S 1.22 | [2] 1.28

APIPSVPYAPFAAIL [RPGF1_HUMAN_504]
inactive: SHP2 C-SH2 domain E139D 1.33 | [1] 1.12 | SHP2 N-SH2 domain L43F 1.03 | SHP2 N-SH2 domain T42A 1.04 | SHP2 N-SH2 domain T52S 1.09 | [2] 1.03

SLEISQSYTTTQRES [ATM_HUMAN_370]
inactive: SHP2 C-SH2 domain E139D 0.495 | [1] 0.558 | SHP2 N-SH2 domain L43F 0.508 | SHP2 N-SH2 domain T42A 0.444 | SHP2 N-SH2 domain T52S 0.6 | [2] 0.661

YTPTSPKYSPTSPTY [RPB1_HUMAN_1909]
inactive: SHP2 C-SH2 domain E139D 0.75 | [1] 0.704 | SHP2 N-SH2 domain L43F 0.599 | SHP2 N-SH2 domain T42A 0.593 | SHP2 N-SH2 domain T52S 0.461 | [2] 0.889

SPTEPKNYGSASTQA [SCAM3_HUMAN_83_YA]
inactive: SHP2 C-SH2 domain E139D 0.788 | [1] 0.685 | SHP2 N-SH2 domain L43F 0.632 | SHP2 N-SH2 domain T42A 0.544 | SHP2 N-SH2 domain T52S 0.714 | [2] 0.602

KTVTDFCYLLDKSKQ [SCAI_HUMAN_64]
inactive: SHP2 C-SH2 domain E139D 1.27 | [1] 1.25 | SHP2 N-SH2 domain L43F 1.33 | SHP2 N-SH2 domain T42A 1.17 | SHP2 N-SH2 domain T52S 1.28 | [2] 1.42

GLLMTPCYTANFVAP [RPS6KA3_HUMAN_580]
inactive: SHP2 C-SH2 domain E139D 1.68 | [1] 1.47 | SHP2 N-SH2 domain L43F 1.3 | SHP2 N-SH2 domain T42A 1.45 | SHP2 N-SH2 domain T52S 1.71 | [2] 1.58

FGLARDIYKNDAARK [ROS1_HUMAN_2110_YA]
inactive: SHP2 C-SH2 domain E139D 0.932 | [1] 0.876 | SHP2 N-SH2 domain L43F 0.867 | SHP2 N-SH2 domain T42A 1.15 | SHP2 N-SH2 domain T52S 1.1 | [2] 0.911

SLSIEKGYRHWHADL [SARDH_HUMAN_777]
inactive: SHP2 C-SH2 domain E139D 1.13 | [1] 0.897 | SHP2 N-SH2 domain L43F 0.906 | SHP2 N-SH2 domain T42A 0.984 | SHP2 N-SH2 domain T52S 1.05 | [2] 1.31

KGAMAATYSALNRNQ [RPS6KA3_HUMAN_707]
inactive: SHP2 C-SH2 domain E139D 0.816 | [1] 0.697 | SHP2 N-SH2 domain L43F 0.649 | SHP2 N-SH2 domain T42A 0.678 | SHP2 N-SH2 domain T52S 0.797 | [2] 0.822

FNFFRKFYNKSEDED [RYR1_HUMAN_4864]
inactive: SHP2 C-SH2 domain E139D 1.09 | [1] 1.05 | SHP2 N-SH2 domain L43F 1.03 | SHP2 N-SH2 domain T42A 1.14 | SHP2 N-SH2 domain T52S 0.858 | [2] 1.17
